# ± gives the standard deviation of the averaged measurements. This is one part of the list.
# System: PfAP2-LT AP2 domain (GST-tagged)
# Assay: gcPBM binding intensity (ln(normalized median fluorescence intensity)); higher = stronger DNA binding
# Procedure, shortened: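 After 1 h on an Agilent 4 × 180k array of primer-extended double-stranded 36-bp intergenic genomic probes and negative controls, bound GST-tagged P. falciparum DNA-binding domains were detected with Alexa488 anti-GST antibody and scanned at 488 nm. The domains had been expressed in E. coli, and binding took place in 1× PBS with 1% milk, 0.2 mg/ml BSA, 0.5% salmon testes DNA and 0.03% Triton X-100. Binding intensity is the highest Masliner-normalised natural-log median intensity across replicate spots of either probe orientation.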
row,Sequence,gcPBM binding intensity (ln)
1,AGGCTGCCATATTATACACACATTTTTAAAAAAATT [CACACA_site3843],8.77 ± 0.4
2,TAATTTTTTTTAATAACACACATATATATATATATA [CACACA_site813],9.23 ± 0.19
3,ATAAAATGAAATATATATGTGTATGCTTAACTTGTT [CACACA_negctrl_site431],8.8 ± 0.36
4,AAAGGATGTAATATAAACATATATATGTATATATAT [TGCATGCA_negctrl_site347],9.02 ± 0.38
5,ATTGTTTTATATAGAACACACATAAAAATATATATG [CACACA_site1193],8.78 ± 0.4
6,TAATATTCCTTTTTAACACACATATGAACAAATAAA [CACACA_site153],8.53 ± 0.38
7,ATATTAAACAGACACACACACATATATTTATTTATA [CACACA_site7564],9.71 ± 0.13
8,TGTATTATATAAAATTGTACATGCGAATTGTATAAC [XGTACX_site902],8.71 ± 0.33
9,AAAATGAACTCACGAGCACACACACCCATATATATA [CACACA_site8247],9.72 ± 0.25
10,TATAGCTATGTATTCACACATAATATAAACTTTAAT [CACACA_site5889],8.73 ± 0.41
11,TAAAACAAAACAAAAATAGGATTATATTCCTTTTTT [CACACA_negctrl_site1003],8.43 ± 0.46
12,ATAATTTCAATATTTAATATCATATATATATATTTT [GTGCAC_negctrl_site713],8.62 ± 0.48
13,AAATAAAAAAATACCCAACACCATGCCAAATGTGAA [CACACA_negctrl_site411],9.11 ± 0.38
14,ATATATATATATATATGTACATATGTGTATATAACT [XGTACX_site495],9.45 ± 0.099
15,ACAAAATGTAAATAAACACACATATTTATATTTATA [CACACA_site6719],8.94 ± 0.45
16,AATAAAATATTATGTGCATGCTGTTTTATTTATTAA [TGCATGCA_site102],8.86 ± 0.3
17,TTGGTGGATAAATTTACACACAATAATTTTCGTTCA [CACACA_site467],8.86 ± 0.38
18,AATTCACCAAAAAAAGTGCATATTCAATATATATTA,8.54 ± 0.47
19,ATCAACATTACATTTAGTACACATATATTTCTATGT [XGTACX_site4436],9.26 ± 0.47

row,Sequence,gcPBM binding intensity (ln)
1,TAGTTAGGCCCTACATGTACATAATATATATTACTT [XGTACX_site1137],9.16 ± 0.3
2,CTAATTAATATTTGTACACACATATTTAACCTACTA [CACACA_site3191],9.1 ± 0.4
3,TATATAAGTATAAAATGTACATAAAATTTTATGTTA [XGTACX_site2613],8.67 ± 0.44
4,TAAAATTCGAAAAATTGTACTATTTATATATCTGTA [XGTACX_site6478],8.49 ± 0.49
5,AACTCTTAAAAATAAACATGCAAATATTTACCTTCT [TGCATGCA_site986],8.61 ± 0.33
6,TATATATTATATATATGTACATAATTCCATGTTTAG [XGTACX_site3943],8.71 ± 0.46
7,ATTTTTTTTTTTTTTTTTCATTTTTTTTTTTTTTTT [CACACA_negctrl_site1204],8.62 ± 0.54
8,ATATTAAAGCCTTTTTGTACATATAAATAAACATAG [XGTACX_site4667],8.57 ± 0.38
9,CTTGAAAGATTTTATTGTACTCATAAGATACATTTC [XGTACX_site3178],8.56 ± 0.42
10,TCATACAATATTAAATGTACATATATATATATATAT [XGTACX_site8828],9.6 ± 0.42
11,TTGAAAATAATATGAAGTACATTATTTTTTTTTAAT [XGTACX_site4499],8.37 ± 0.47
12,AAAAATATTTAAAATACACACATATATATAATATAT [CACACA_site2006],8.89 ± 0.42
13,AAAACTTTCCATGTTTGTACATAAAATATAATAATT [XGTACX_site2716],8.49 ± 0.42
14,TTTTTTTTCTTTTTTTTTTTTTCAAAAGCTTATAAT [CACACA_negctrl_site1526],8.15 ± 0.5
15,GTGTATTTGGTGCGCACACACATGCAAAAAGAAATA [CACACA_site4768],9.52 ± 0.43
16,TGTATAATCATATATACACACACATATATATATATA [CACACA_site8674],9.71 ± 0.19
17,TTATATAAAAAAAAATGTACATATAATTGGTAAATT [XGTACX_site5180],8.69 ± 0.49
18,TATGTGATAACACGCACACAAATGTATTTAATTTAT [CACACA_site5435],9.12 ± 0.38
19,AAAAAATGAAAATATTCCAAAATAGAGGGAAATGTA [GTGCAC_negctrl_site572],8.73 ± 0.45

row,Sequence,gcPBM binding intensity (ln)
1,CACAAAAATGTAATCACACATATATATATATATATA [CACACA_site5818],9.88 ± 0.29
2,TTATATTTATATATTTGTACGTATGTATATAATTCA [XGTACX_site2993],8.65 ± 0.38
3,ATTCTAATAATATATACACACACATATATATTTATA [CACACA_site8629],9.14 ± 0.32
4,AAAATTAGGAGACATGCATGTAACGATAAATATAAC [TGCATGCA_site148],9.67 ± 0.64
5,CTTTTTTAAAATATTTAACACACAATTTTAATGCAT [CACACA_site9303],8.71 ± 0.41
6,TAATTTTTATTCAAGAGTACACAAAAGATAACTAAA [XGTACX_site4060],8.28 ± 0.47
7,TAAAAAAAATCATTCACACATATATGAAAAAAAAAA [CACACA_site5546],8.68 ± 0.55
8,TTCTTACACGTTTGCACACTAAAATATATATATATA [CACACA_site434],9.09 ± 0.38
9,TAGATACCTATAGAAACATGCAATTGAATATATTTC [TGCATGCA_site402],8.68 ± 0.46
10,GTTACATACATATACACACACATATATATATATATA [CACACA_site901],10.2 ± 0.17
11,TAAATAATTCTTTTAGTACACACGAATAAGCAGATA [CACACA_site305],8.76 ± 0.49
12,AGATATAAGAAAAGCACACACACACCCAAAAAAAAA [CACACA_site2826],10.2 ± 0.18
13,AAAATATATATTAACACACACACAAAAAAAAAAAAA [CACACA_site1325],9.74 ± 0.51
14,GAAAATTATATGTGTTGTACACTTGCAACAACTATT [XGTACX_site3637],8.85 ± 0.5
15,AATAAATATATGTACACACACAAATATATACATATC [CACACA_site1903],9.39 ± 0.29
16,TTTTATAATGTTGTAGTGCAAAATACGTATATTTAT [GTGCAC_site9826],8.65 ± 0.4
17,GGTGGCTAAATTACAACACACGACGGAATATTATAT [CACACA_site4114],9.14 ± 0.47
18,AATATATGGTTTCATTATATTAAATTCAATTTAATG [CACACA_negctrl_site675],8.44 ± 0.36

# Reference: the supplement of paper PMC11417369
